# From ChEMBL document CHEMBL1157539, “Thousands of chemical starting points for antimalarial lead identification” (Nature, 2010)
# In all, about 13,000 compounds were measured (“IFI”: median about 4, highest 2% from about 17 on). The list shows a part of the results.
# Assay: GSK_TCMDC: Inhibition Frequency Index (IFI). The number of non-kinase HTS assays where a compound showed > 50 % inhibition, expressed as a percentage of the number of such assays in which the compound was tested (-0 is zero)
# Type: functional
row,Compound,IFI [%]
1,CC(C)CCN(Cc1cncn1Cc1cccc(Cl)c1)C(=O)c1cncc(-c2ccccc2)c1,6.49
2,O=C(/C=C/c1ccc(Cl)c(Cl)c1)NCCCCCN1CCC(NC(=O)Nc2cc(Cl)ccc2Cl)CC1,9.87
3,CCCCOc1ccccc1C(=O)NCc1csc(-c2ccccc2)n1,17
4,CC(=O)NCCNc1cc(N2CCc3ncnc(Nc4ccc(OCc5c(F)cccc5F)c(Cl)c4)c3C2)ncn1,9.56
5,CC(=O)Nc1ccc(OCCCCN(Cc2ccccc2C(F)(F)F)c2ccc(C#N)c(C(F)(F)F)c2)c(Cl)c1,0
6,Cc1nccn1CCNC(=O)CN1CCC2(CCC1=O)CC(=O)c1ccccc1O2 (stereo not given),-0
7,Cc1cc(-c2ccc3c(c2)CCN(CCC2CCC(NC(=O)/C=C/c4ccccc4F)CC2)CC3)on1 (stereo not given),2.29
8,C=CCC(C)n1ncc2c3c(N)nc(N)nc3ccc21 (stereo not given),2.22
9,CN1CCN(c2ccnc3ccc(NC(=O)Nc4ccc(Br)cc4)cc23)CC1,2.94
10,c1ccc(CN2CCN(c3cc(-c4cncc(-c5ccccc5)c4)nc(-c4ccccc4)n3)CC2)cc1,0
11,CS(=O)(=O)c1ccc(CCNCc2ccc(-c3ccc(CN(C(=O)c4cccc(C#N)c4)C4CCN(Cc5ccccc5)CC4)cc3)nc2)cc1,5.56
12,Cc1ccccc1CNC(=O)Nc1cccc(-c2csc(NC(=N)N)n2)c1,3.76
13,CCn1c(-c2nonc2N)nc2c(-c3ccc(CO)o3)ncc(OCCCN)c21,15.4
14,CNC(=O)NC1=NC(C)(C)N(OCCCOc2cc(Cl)c(Cl)cc2Cl)C(N)=N1,0
15,CCc1c(C)c(C#N)c2nc3ccccc3n2c1NCc1ccco1,1.8
16,COc1ccc2nccc([C@@H](O)CN3CCC(NC(=O)CCC(=O)c4cc(C(C)(C)C)ccc4OC)CC3)c2c1,10.3
17,COc1cc(NC(=O)c2nn(CCCN3CCC(N4CCCC4)CC3)cc2-c2ccc(Cl)c(Cl)c2)cc(OC)c1OC,10.9
18,Cc1cc(Cl)ccc1NC(=O)Nc1ccc2nccc(N3CCN(C)CC3)c2c1,2.14
19,CC1(C)CCCN(Cc2c(O)ccc3c(O)c(-c4nc5ccccc5s4)c(=N)oc23)C1,0.73
20,CCOc1cc(C(=O)NC2CC(C)(C)NC(C)(C)C2)ccc1-c1nc2cc(Cl)ccc2[nH]1,2.05
21,COC(=O)CCn1c(C2CCN(CC3CCC(NC(=O)/C=C/c4ccc(Cl)c(Cl)c4)CC3)CC2)nc2ccccc21 (stereo not given),3.03
22,CC(C)CCN1CCCN(Cc2ccc(C(=O)Nc3ccc(F)c(F)c3)cc2)CC1,7.14
23,Cc1cc(=O)c(-c2ccc(Oc3ccc(Cl)cc3Cl)cc2)c(C)[nH]1,2.88

row,Compound,IFI [%]
1,CCCc1cc(=O)oc2cc(OC)c(C(=O)CC(C)C)c(OC)c12,0.81
2,COc1ccc(CCNC(=O)c2ccc(-n3cc(NC(=O)c4cccnc4)cn3)cc2)cc1OC,9.76
3,FC(F)(F)Oc1cccc(CNc2noc(-c3sccc3Br)n2)c1,10.6
4,Cc1cccc2nc(-c3ccc(-c4cccc(CN5CCCC5CN)c4)s3)[nH]c12 (stereo not given),7.92
5,Cc1[nH]c2ccc(-c3ccccc3)cc2c(=O)c1Br,0.88
6,CCC[C@@H]([C@@H](CC1CCCCC1)C(=O)NC(C(=O)Nc1nccs1)C(CC)c1ccccc1)N(O)C=O (stereo not given in full),6.02
7,Cc1cc(Nc2ccc(C)c(C)c2)n2nc(C)nc2n1,0
8,CCC(C)C(COC(=O)c1cc(OC)c(OC)c(OC)c1)N(C)CCN(C)C(COC(=O)c1cc(OC)c(OC)c(OC)c1)C(C)CC (stereo not given),1.48
9,CN(C)CCCOc1ccc(CN2CC[C@H](NC(=O)c3ccc(Cl)c(Cl)c3)C2)cc1Br,10.3
10,COc1cc2nc(NCC3CCN(c4nc(N)c5cc(OC)c(OC)cc5n4)CC3)nc(N)c2cc1OC,7.96
11,Cc1c(NCCCNCc2cc(Cl)cc(Cl)c2Cl)[nH]c2ccccc2c1=O,8.53
12,Cc1cc(NC(=O)NCCN2CCC(NC(=O)c3cccc(Br)c3)C2)c2ccccc2n1 (stereo not given),0.84
13,N=C1C=C(N)C(=O)c2ccccc21,20.8
14,C=CCc1cccc(CN2CCC(c3cc(O)nc(-c4ccccn4)n3)CC2)c1O,11.8
15,O=C(c1ccccc1)N1COCC(CCN2CCC(N3CCCC3)CC2)(c2ccc(Cl)c(Cl)c2)C1 (stereo not given),0
16,O=C(O)CNCC(O)c1ccccc1 (stereo not given),-0
17,CC(=O)Nc1ccc(C(=O)N2CCN(c3ccnc4cc(Cl)ccc34)CC2)cc1,-0
18,CC1(C)N=C(N)N=C(N)N1c1ccc(Oc2ccc(Cl)cc2)c(Cl)c1,3.45
19,Cc1c(C)n(Cc2ccccc2)c2ncnc(OC3CCN(CC(=O)NCC4CC4)CC3)c12,11.9
20,COc1cc2nc(C)nc(Nc3ccc(Cc4ccccc4)cc3)c2cc1OC,6.35
21,Cc1cccc(Nc2nc(N)c3ccccc3n2)c1,2.82
22,O=C(c1csc(-c2cccnc2)n1)N1CCc2cc3nccc(N4CCN5CCC[C@H]5C4)c3cc21,1.49
23,CNS(=O)(=O)c1ccc(NC(=O)c2cc(-c3cccnc3)nc3ccc(Br)cc23)cc1,2.86

row,Compound,IFI [%]
1,C=C[C@]1(C)C[C@@H](OC(=O)CNC[C@@H](O)CN2C[C@H](c3ccnc4ccc(OC)nc34)OC2=O)[C@@]2(C)[C@@H]3C(=O)CC[C@@]3(CC[C@@H]2C)[C@@H](C)[C@@H]1O,1.56
2,CCNc1cc(C)nc(Nc2ccc(NC(=O)c3ccccc3Cl)cc2)n1,11.3
3,N=C(N)NC(=O)Nc1cc(Cl)c(Cl)c(C(F)(F)F)c1,5.22
4,Cc1noc(C)c1C(=O)N1CCCC(c2[nH]c3c(C)cccc3c2-c2ccncc2)C1 (stereo not given),2.27
5,COc1ccc(CNCc2ccc(-c3cccc(-c4nc5ccccc5[nH]4)c3)cc2)cc1,9.17
6,Oc1ccc(CCCNc2nc(NCc3cccc4ccccc34)nc(NC3CCNCC3)n2)cc1,10.8
7,O=C(Nc1ccc(Cn2ncc(N3CCCNCC3)c(Cl)c2=O)cc1)Nc1cccc(C(F)(F)F)c1,7.35
8,Nc1nc(NCC2CCC(CNS(=O)(=O)c3cccc4ccccc34)CC2)nc2ccccc12 (stereo not given),6.67
9,Nc1nc(N)c(-c2ccccc2)c(=O)[nH]1,2.29
10,NC(=O)c1c(Cl)nc2ccccc2c1Cl,1.45
11,COc1ccc(/N=C(\N)Nc2ccccc2)nc1Cc1ccccc1,30.2
12,Cc1nc(C)c(-c2ccc(Oc3ccc(Cl)cc3)cc2)c(O)c1I,0.76
13,Cc1cc(F)ccc1[C@H]1C[C@H](N2CCOCC2)CCN1C(=O)N(C)[C@@H](C)c1cc(C(F)(F)F)cc(C(F)(F)F)c1,5.66
14,COc1ccc(CNC(=O)NC2CCN(c3ccnc(Nc4ccc(OC)cc4)n3)C2)cc1 (stereo not given),4.62
15,COc1cc2c(cc1C(F)(F)F)N(C(=O)Nc1cc(OC(F)(F)F)cc(-c3cccnc3)c1)CC2,3.91
16,O=C(/C=C/c1ccc(C(F)(F)F)cc1)N1CCC(CCN2CCC(c3c[nH]c4ccccc34)CC2)CC1,7.86
17,Cc1cccc2nc(-c3ccc(-c4cccc(CN5CCCCC5)c4)s3)[nH]c12,-0
18,Cc1nn(-c2ccccc2)nc1C(=O)N(Cc1ccc(-c2ccc(CNCCc3ccc(S(C)(=O)=O)cc3)cn2)cc1)C1CC1,5.56
19,CN(C)c1ccc(C2c3[nH]cnc3CCN2C(=O)Nc2cccc([N+](=O)[O-])c2)cc1 (stereo not given),12.2
20,CN1CCC(NCc2ccc(-c3ccc(C(F)(F)F)cc3)cc2)CC1,5.15
21,c1cncc(-c2cc(N3CCc4ccccc4C3)nc(-c3ccncc3)n2)c1,6.38
22,COCCCNc1nc2cc(OC)c(OC)cc2c2nc(-c3ccccc3)nn12,0.93
23,COc1cccc2c(N/N=C/c3ccc([N+](=O)[O-])cc3)ccnc12,0.72

row,Compound,IFI [%]
1,O=C(N[C@@H](CC1CCCCC1)C(=O)NC1CCCCC1)c1ccc(O)c(-c2cccc(C(F)(F)F)c2)c1,2.19
2,COc1ccc(CNC2Cc3ccccc3C2)cc1-c1ccc(OC)c(S(=O)(=O)NCCN2CCCC2)c1,7.69
3,Cc1ccc2nc(N(CCCn3ccnc3)C(=O)C=Cc3cccs3)sc2c1,4.26
4,COc1nc2c(CCN3CC[C@H](NCc4cc(C#N)c5c(c4)CCO5)[C@H](O)C3)ccnc2cc1F,2.97
5,Cn1nccc1C(=O)NCCNCc1cccc(-c2cccc(-c3nc4cc(C(F)(F)F)ccc4[nH]3)c2)c1,8.91
6,CC(C)(C)OC(=O)Cn1cnc2cc(NC(=O)c3cc([N+](=O)[O-])cc([N+](=O)[O-])c3)ccc21,0.71
7,CC(=NNC(S)=NCCc1ccccn1)c1ccccn1,6.78
8,O=C(/C=C/c1ccc(Cl)c(Cl)c1)NCCCCCN1CCC(NC(=S)Nc2ccc(Cl)cc2Cl)CC1,11.6
9,COC(=O)c1ccc2nc(-c3ccc(C(=O)NCc4ccc(Cl)c(Cl)c4)cc3)[nH]c2c1,0.76
10,N#Cc1ccc(N/C(=N\c2ccccc2Br)N(C2CCCCC2)C2CCCCC2)c(O)c1,3.76
11,COc1ccc(Cl)cc1N1CCN(CCCNC(=O)c2ccc(-c3nc4cc(Cl)c(C)cc4[nH]3)c(F)c2)CC1,1.54
12,Cc1ccccc1CN1CCCN(Cc2ccc(C(=O)Nc3ccc(C(C)(C)C)cc3)cc2)CC1,18.4
13,Cc1ccc(NC(=O)N2CCCN(CCCCCNC(=O)/C=C/c3ccc(Cl)c(Cl)c3)CC2)cc1C,4.64
14,CN1C(=CC(=O)NC(=O)c2ccccc2)C(C)(C)c2ccccc21,0.81
15,CCN(CC)c1ccc(C(c2ccc(N(CC)CC)cc2)c2cccc([N+](=O)[O-])c2)cc1,3.65
16,c1cc(CN2CCCCC2)cc(OCCCNc2ccnc3ccccc23)c1,5.8
17,CCc1ccc(S(=O)(=O)Nc2ccc(CCN3CCC(N4CCCCC4)CC3)cc2)cc1,9.23
18,COc1ccc(C2=CCN(c3ccc(Cl)c(Cl)c3)C2=O)cc1OCCN1CCCCC1,7.32
19,Cc1cnc(NC(=O)c2cn(-c3ccccc3)nc2-c2cccs2)s1,0.88
20,C(=NNc1nc2ccccc2[nH]1)c1ccccc1OCc1ccccc1,0.71
21,COc1ccc(-c2cccc(NC(=O)c3ccc(C#N)cc3)c2)cc1CN1CCCN(C)CC1,5.94
